# From the supplement of paper PMC8728848
# This is one part of the list.
# Columns and labels:
# Assay in all cases: glycan array binding signal (z-score within array); higher = stronger binding
# Settings in all cases: glycan notation: IUPAC condensed, linker removed
# [1] = biological target: Glc(b1-4)Glc(b1-3)Glc
# Summary of the method: (§1)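 Glycan array data were curated from 3228 arrays in the Consortium for Functional Glycomics database and kept only where the protein sequence was available. Glycan names were converted to IUPAC-condensed notation, and columns mapping to the same glycan were averaged. The binding signal is a within-array Z-score, averaged across arrays of the same protein sequence at different concentrations or buffers and across linkers. Negative Z-scores can be read as non-binding.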
# [2] = biological target: Glc(b1-4)Glc(b1-3)Glc(b1-4)Glc
# Summary of the method: as §1
# [3] = biological target: Glc(b1-4)Glc(b1-4)Glc
# Summary of the method: as §1
# [4] = biological target: Glc(b1-4)Glc(b1-4)Glc(b1-3)Glc
# Summary of the method: as §1
# [5] = biological target: Glc(b1-4)Glc(b1-4)Glc(b1-3)Glc(b1-4)Glc(b1-4)Glc(b1-3)Glc
# Summary of the method: as §1
# [6] = biological target: Glc(b1-4)Glc(b1-4)Glc(b1-4)Glc
# Summary of the method: as §1
# [7] = biological target: Glc(b1-4)Glc(b1-4)Glc(b1-4)Glc(b1-3)Glc
# Summary of the method: as §1
# [8] = biological target: Glc(b1-4)Glc(b1-4)Glc(b1-4)Glc(b1-4)Glc
# Summary of the method: as §1
# [9] = biological target: Glc(b1-4)Glc(b1-4)Glc(b1-4)Glc(b1-4)Glc(b1-4)Glc
# Summary of the method: as §1
# [10] = biological target: Glc(b1-4)Glc(b1-4)Glc(b1-4)Glc(b1-4)Glc(b1-4)Glc(b1-4)Glc
# Summary of the method: as §1
# [11] = biological target: Glc(b1-4)Glc(b1-4)Glc(b1-4)Glc(b1-4)Glc(b1-4)Glc(b1-4)Glc(b1-4)Glc
# Summary of the method: as §1
# [12] = biological target: Glc(b1-4)Glc(b1-4)Glc(b1-4)Glc(b1-4)Glc(b1-4)Glc(b1-4)Glc(b1-4)Glc(b1-4)Glc
# Summary of the method: as §1
# [13] = biological target: Glc(b1-4)Glc(b1-4)Glc(b1-4)Glc(b1-4)Glc(b1-4)Glc(b1-4)Glc(b1-4)Glc(b1-4)Glc(b1-4)Glc
# Summary of the method: as §1
# [14] = biological target: Glc(b1-4)Glc(b1-4)Glc(b1-4)Glc(b1-4)Glc(b1-4)Glc(b1-4)Glc(b1-4)Glc(b1-4)Glc(b1-4)Glc(b1-4)Glc
# Summary of the method: as §1
# [15] = biological target: Glc(b1-4)Glc(b1-4)Glc(b1-4)Glc(b1-4)Glc(b1-4)Glc(b1-4)Glc(b1-4)Glc(b1-4)Glc(b1-4)Glc(b1-4)Glc(b1-4)Glc
# Summary of the method: as §1
# [16] = biological target: Glc(b1-4)Glc(b1-4)Glc(b1-4)Glc(b1-4)Glc(b1-4)Glc(b1-4)Glc(b1-4)Glc(b1-4)Glc(b1-4)Glc(b1-4)Glc(b1-4)Glc(b1-4)Glc
# Summary of the method: as §1
# [17] = biological target: Glc(b1-6)Glc
# Summary of the method: as §1
# [18] = biological target: Glc(b1-6)Glc(b1-6)Glc
# Summary of the method: as §1
# [19] = biological target: Glc(b1-6)Glc(b1-6)Glc(b1-6)Glc
# Summary of the method: as §1
# [20] = biological target: Glc(b1-6)Glc(b1-6)Glc(b1-6)Glc(b1-6)Glc
# Summary of the method: as §1
# [21] = biological target: Glc(b1-6)Glc(b1-6)Glc(b1-6)Glc(b1-6)Glc(b1-6)Glc
# Summary of the method: as §1
# [22] = biological target: Glc(b1-6)Glc(b1-6)Glc(b1-6)Glc(b1-6)Glc(b1-6)Glc(b1-6)Glc
# Summary of the method: as §1
# [23] = biological target: Glc(b1-6)Glc(b1-6)Glc(b1-6)Glc(b1-6)Glc(b1-6)Glc(b1-6)Glc(b1-6)Glc
# Summary of the method: as §1
# [24] = biological target: Glc(b1-6)Glc(b1-6)Glc(b1-6)Glc(b1-6)Glc(b1-6)Glc(b1-6)Glc(b1-6)Glc(b1-6)Glc
# Summary of the method: as §1
# [25] = biological target: Glc(b1-6)Glc(b1-6)Glc(b1-6)Glc(b1-6)Glc(b1-6)Glc(b1-6)Glc(b1-6)Glc(b1-6)Glc(b1-6)Glc
# Summary of the method: as §1
# [26] = biological target: Glc(b1-6)Glc(b1-6)Glc(b1-6)Glc(b1-6)Glc(b1-6)Glc(b1-6)Glc(b1-6)Glc(b1-6)Glc(b1-6)Glc(b1-6)Glc
# Summary of the method: as §1
# [27] = biological target: Glc(b1-6)Glc(b1-6)Glc(b1-6)Glc(b1-6)Glc(b1-6)Glc(b1-6)Glc(b1-6)Glc(b1-6)Glc(b1-6)Glc(b1-6)Glc(b1-6)Glc
# Summary of the method: as §1
# [28] = biological target: Glc(b1-6)Glc(b1-6)Glc(b1-6)Glc(b1-6)Glc(b1-6)Glc(b1-6)Glc(b1-6)Glc(b1-6)Glc(b1-6)Glc(b1-6)Glc(b1-6)Glc(b1-6)Glc
# Summary of the method: as §1
# [29] = biological target: GlcA(b1-3)Gal
# Summary of the method: as §1
# [30] = biological target: GlcA(b1-3)Gal(b1-3)GlcNAc
# Summary of the method: as §1
# [31] = biological target: GlcA(b1-3)Gal(b1-4)GlcNAc(b1-3)Gal(b1-4)Glc
# Summary of the method: as §1
# [32] = biological target: GlcA(b1-3)Gal(b1-4)GlcNAc(b1-3)Gal(b1-4)GlcNAc(b1-3)Gal(b1-4)Glc
# Summary of the method: as §1
# [33] = biological target: GlcA(b1-3)GlcNAc(b1-4)GlcA(b1-3)GlcNAc
# Summary of the method: as §1
# [34] = biological target: GlcA(b1-3)GlcNAc(b1-4)GlcA(b1-3)GlcNAc(b1-4)GlcA(b1-3)GlcNAc(b1-4)GlcA(b1-3)GlcNAc(b1-4)GlcA(b1-3)GlcNAc(b1-4)GlcA(b1-3)GlcNAc(b1-4)GlcA(b1-3)GlcNAc
# Summary of the method: as §1
# [35] = biological target: GlcA3S(b1-3)Gal
# Summary of the method: as §1
# [36] = biological target: GlcA3S(b1-3)Gal(b1-4)GlcNAc(b1-3)Gal(b1-4)Glc
# Summary of the method: as §1
# [37] = biological target: GlcA3S(b1-3)Gal(b1-4)GlcNAc(b1-3)Gal(b1-4)GlcNAc(b1-3)Gal(b1-4)Glc
# Summary of the method: as §1
# [38] = biological target: GlcNAc(a1-4)Gal
# Summary of the method: as §1
binder,measurement,setting,value
"Dectin-1 (Mus musculus), Q6QLQ4 (protein) GHNSGRNPEEKDNFLSRNKENHKPTESSLDEKVAPSKASQTTGGFSQPCLPNWIMHGKSCYLFSFSGNSWYGSKRHCSQLGAHLLKIDNSKEFEFIESQTSSHRINAFWIGLSRNQSEGPWFWEDGSAFFPNSFQVRNTAPQESLLHNCVWIHGSEVYNQICNTSSYSICEKEL",glycan array binding signal (z-score),[1],-0.135
same,glycan array binding signal (z-score),[2],-0.135
same,glycan array binding signal (z-score),[3],-0.135
same,glycan array binding signal (z-score),[4],-0.011
same,glycan array binding signal (z-score),[5],-0.135
same,glycan array binding signal (z-score),[6],-0.135
same,glycan array binding signal (z-score),[7],-0.135
same,glycan array binding signal (z-score),[8],-0.068
same,glycan array binding signal (z-score),[9],-0.135
same,glycan array binding signal (z-score),[10],-0.135
same,glycan array binding signal (z-score),[11],-0.135
same,glycan array binding signal (z-score),[12],-0.135
same,glycan array binding signal (z-score),[13],-0.135
same,glycan array binding signal (z-score),[14],0.216
same,glycan array binding signal (z-score),[15],-0.135
same,glycan array binding signal (z-score),[16],-0.135
same,glycan array binding signal (z-score),[17],-0.135
same,glycan array binding signal (z-score),[18],-0.135
same,glycan array binding signal (z-score),[19],-0.135
same,glycan array binding signal (z-score),[20],-0.135
same,glycan array binding signal (z-score),[21],-0.135
same,glycan array binding signal (z-score),[22],-0.089
same,glycan array binding signal (z-score),[23],-0.135
same,glycan array binding signal (z-score),[24],-0.135
same,glycan array binding signal (z-score),[25],-0.113
same,glycan array binding signal (z-score),[26],-0.104
same,glycan array binding signal (z-score),[27],-0.135
same,glycan array binding signal (z-score),[28],-0.078
same,glycan array binding signal (z-score),[29],-0.06
same,glycan array binding signal (z-score),[30],-0.091
same,glycan array binding signal (z-score),[31],-0.021
same,glycan array binding signal (z-score),[32],-0.049
same,glycan array binding signal (z-score),[33],-0.037
same,glycan array binding signal (z-score),[34],-0.012
same,glycan array binding signal (z-score),[35],-0.085
same,glycan array binding signal (z-score),[36],-0.078
same,glycan array binding signal (z-score),[37],-0.062
same,glycan array binding signal (z-score),[38],-0.088
